{
  "source": "PubChem BioAssay AID686971",
  "about": "(National Center for Advancing Translational Sciences (NCATS), 2013)",
  "note": "Screen size: about 360,000 compounds; about 7,500 (2.1%) were called active. This list was built around the results that the source calls inconclusive (neither active nor inactive); the mix of calls is not that of the screen. Calls come from the whole dose curve; as a rule, active = well fitted cell-killing curve with a large enough effect; inconclusive = small, poorly fitted or top-dose-only effect, or effect the other way, or another doubt; inactive = no such curve, though single readings can be large or run the other way. No potency is given beside an inconclusive call; the fits are too rough. Potency is the fitted concentration of half-maximal effect; tags give direction and shape of the fitted curve.",
  "data": [
    {"experiment": "qHTS for induction of synthetic lethality in tumor cells producing 2HG: qHTS for the HT-1080-IDH1KD cell line;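 for activity, negative = toxicity: 0% = DMSO wells and -100% = cell-free medium wells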", "conditions": "HT-1080 IDH1 knockdown viability, ATP luminescence, 48 h; activity, negative = toxicity: at 46.1 µM (top of the series) unless noted", "method_in_brief": "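Using the IDH1-knockdown HT-1080 line run in the same batch and compound series as the NT line, viability after 48 h at 37 °C was determined by CellTiter-Glo luminescence and expressed as % activity.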", "values": [
      {"compound": "Cc1nc2c(OCCC3CCCCC3)cccn2c1N(C)C(=O)CCC1CCCC1", "Potency": "inconclusive [cytotoxic, single point]"},
      {"compound": "C[C@H]1CN([C@@H](C)CO)C(=O)Cc2cc(NS(=O)(=O)c3cccs3)ccc2O[C@H]1CN(C)S(=O)(=O)c1cn(C)cn1", "Potency": "inactive"},
      {"compound": "O=C(c1ccc2c(c1)OCCO2)C1CCN(S(=O)(=O)c2ccccc2F)CC1", "Potency": "inconclusive [cytotoxic, partial curve, poor fit]"},
      {"compound": "O=C(O)c1ccc(Cl)c(S(=O)(=O)N(Cc2ccccc2)c2ccc(Cl)cc2)c1", "Potency": "inactive"},
      {"compound": "O=C(Nc1ccccc1Cl)/C(Cl)=C(\\Cl)S(=O)c1ccccc1", "note": "(centres undefined)", "Potency": "active: 6.51 µM"},
      {"compound": "Nc1n[nH]c(N)c1N=Nc1ccc(Cl)cc1Cl", "Potency": "inconclusive [cytotoxic, single point]"},
      {"compound": "Cc1ccc(C(=O)NCCNc2ccc([N+](=O)[O-])cc2C(F)(F)F)cc1", "activity, negative = toxicity": "inconclusive: -32.2% [cytotoxic]"},
      {"compound": "O=C(Nc1cccnc1)c1ccc(COc2ccccc2Cl)o1", "Potency": "active: 20.6 µM"},
      {"compound": "Fc1ccc(Nc2ncnc3sc4c(c23)CCC4)cc1F", "Potency": "inactive"},
      {"compound": "Cc1ccc(CNC(=O)CSc2c3c(nc4cc(Cl)ccc24)CCCC3)o1", "Potency": "inconclusive [cytotoxic, single point]"},
      {"compound": "COc1cc(C(=O)NNC(=S)Nc2ccc(S(N)(=O)=O)cc2)cc(OC)c1OC", "Potency": "inconclusive [cytotoxic, single point]"},
      {"compound": "CN(Cc1ccccc1)c1ccc(C(CC(N)=O)NC(=O)c2ccc(Br)cc2)cc1[N+](=O)[O-]", "note": "(centres undefined)", "Potency": "inconclusive [cytotoxic, single point]"},
      {"compound": "COc1cccc(C(C)(O)c2nc(-c3cccc(C(F)(F)F)c3)cs2)c1", "note": "(centres undefined)", "Potency": "inconclusive [cytotoxic, single point]"},
      {"compound": "CCOC(=O)C1=CCN(S(=O)(=O)c2ccc(C)cc2)C1c1cccc(Br)c1", "note": "(centres undefined)", "Potency": "inconclusive [cytotoxic, partial curve]"},
      {"compound": "COc1cccc(CN2CCC(CO)(CC3CCCCO3)CC2)c1", "note": "(centres undefined)", "Potency": "inactive"},
      {"compound": "Cn1c(=O)[nH]c(=O)c2c1nc(Br)n2CC(O)COc1ccc(Cl)cc1", "note": "(centres undefined)", "Potency": "inconclusive [cytotoxic, single point]"},
      {"compound": "O=c1oc2ccccc2cc1-c1csc(Nc2nc3c(F)cccc3s2)n1", "Potency": "inconclusive [cytotoxic, full curve, poor fit]"},
      {"compound": "O=C(c1ccc2c(c1)OCO2)C1CCCN(C2CCN(CCc3ccccc3)CC2)C1", "note": "(centres undefined)", "Potency": "active: 23.1 µM"},
      {"compound": "O=C(Nc1ccc2c(c1)OCO2)c1noc2c1CCCCC2", "Potency": "inconclusive [cytotoxic, single point]"},
      {"compound": "CCc1nc2cc(NC(=O)C3(C)CCCN(C(C)=O)C3)ccc2o1", "note": "(centres undefined)", "Potency": "inconclusive [rising, single point]"},
      {"compound": "NC(=S)N/N=C/c1cccc(/C=N/NC(N)=S)c1", "Potency": "inactive"},
      {"compound": "CC(C)C[C@@H](CN1CCC[C@@H]1CN1C(=S)NC[C@@H]1Cc1ccc(O)cc1)N1C[C@H](Cc2ccc(O)cc2)N(CC2CCCCCC2)C1=S", "Potency": "active: 18.4 µM"},
      {"compound": "Cc1ccc(-c2csc(N=C(N)N)n2)cc1", "Potency": "inconclusive [cytotoxic, partial curve, poor fit]"},
      {"compound": "O=C(NCCc1c[nH]c2ccccc12)C(=O)c1c[nH]c2ccccc12", "activity, negative = toxicity": "inconclusive: -7.6% [cytotoxic]"},
      {"compound": "O=C(OCC(O)COC(=O)c1cccnc1)c1cccnc1", "Potency": "inactive"},
      {"compound": "COc1ccc(C2C3=C(CCCC3=O)N(CC(=O)O)C3=C2C(=O)CCC3)cc1Cl", "Potency": "inactive"},
      {"compound": "CC(C)(C)OC(=O)N1CCCN(C(c2ccnc3ccccc23)c2nnnn2-c2ccc3c(c2)OCCO3)CC1", "note": "(centres undefined)", "Potency": "inconclusive [cytotoxic, partial curve]"},
      {"compound": "N/C(=N\\S(=O)(=O)c1cc(C(F)(F)F)cc(C(F)(F)F)c1)c1ccc(Cl)cc1", "Potency": "inconclusive [cytotoxic, single point]"},
      {"compound": "O=C(NCc1ccccc1)C1c2ccccc2Oc2ccccc21", "Potency": "inactive"},
      {"compound": "CCO[C@@H]1OC(C(=O)NCc2nc3ccccc3[nH]2)=C[C@H](C(C)(C)C)[C@H]1CCCO", "Potency": "active: 3.26 µM"},
      {"compound": "CSCCC(c1nc2ccccc2[nH]1)n1c(-c2ccc(C)cc2)nc2ccccc21", "note": "(centres undefined)", "Potency": "inconclusive [cytotoxic, single point]"},
      {"compound": "CC(C)(CNC(=O)CO/N=C1/C=C2CCC3C(C(O)C[C@@]4(C)C3CC[C@]4(O)C(=O)CO)[C@@]2(C)CC1)C(O)C(=O)O", "note": "(some centres undefined)", "Potency": "inconclusive [rising, single point]"},
      {"compound": "CCOc1cc(C)c(S(=O)(=O)Nc2ccc(F)cc2)cc1C", "Potency": "inconclusive [cytotoxic, single point]"},
      {"compound": "O=C(CCCCCn1c(SCc2ccncc2)nc2ccccc2c1=O)NCc1ccco1", "Potency": "active: 11.2 µM"},
      {"compound": "CCCCNc1nc2ccccc2n1CC(=O)Nc1ccc2c(c1)OCCO2", "Potency": "inconclusive [cytotoxic, single point]"},
      {"compound": "Cc1nc(SCC(=O)NCc2ccco2)c2c3c(sc2n1)CCCC3", "Potency": "inconclusive [cytotoxic, single point]"},
      {"compound": "COCCNc1nc(NCCCN2CCCC2=O)c2sc(-c3ccccc3)cc2n1", "Potency": "inconclusive [cytotoxic, single point]"},
      {"compound": "COc1ccc(S(=O)(=O)NC(=O)C2(C)CCN2C(=O)Cc2ccccc2Cl)cc1OC", "note": "(centres undefined)", "Potency": "inconclusive [rising, single point]"},
      {"compound": "COc1ccc(CCNC(=O)CSc2nc(-c3ccco3)cc(C(F)(F)F)n2)cc1OC", "Potency": "inconclusive [rising, single point]"},
      {"compound": "Fc1ccc(F)c(NC(=S)NCCc2ccccc2)c1", "Potency": "inactive"},
      {"compound": "COc1cc2c(cc1OC)C1CCN3C(=O)CCC3N1CC2", "note": "(centres undefined)", "Potency": "inactive"},
      {"compound": "CCc1ccc(/C=C/C(=O)c2cc(Br)ccc(=O)c2O)cc1", "Potency": "inconclusive [cytotoxic, single point]"},
      {"compound": "N#CCC(=O)Nc1ccc(C(=O)NNC(=O)CCN2CCN(c3ccccc3)CC2)cc1", "Potency": "inactive"},
      {"compound": "CCN(CC)CC(=O)Nc1ccc2c(c1)Nc1ccccc1CC2", "Potency": "inconclusive [cytotoxic, partial curve]"},
      {"compound": "CCOC(=O)C1=C(C)N(C)C(=O)NC1c1c(O)ccc2ccccc12", "note": "(centres undefined)", "Potency": "inactive"},
      {"compound": "CC1C(=O)N(Cc2cn(CC3CCCCC3)nn2)CCS(=O)(=O)N1Cc1ccc(-c2ccncc2)cc1", "note": "(centres undefined)", "Potency": "inactive"},
      {"compound": "Oc1c(C2=NCCNC(C(F)(F)F)=C2)ccc2ccccc12", "Potency": "inconclusive [cytotoxic, single point]"},
      {"compound": "Cc1ccc(CNC(=S)Nc2ccc3c(c2)c(=O)n(C)n3Cc2cccc(C(F)(F)F)c2)cc1", "Potency": "inconclusive [cytotoxic, single point]"},
      {"compound": "O=C(CSC1=Nc2ccccc2C2CC=NN12)NCc1ccco1", "note": "(centres undefined)", "Potency": "active: 7.31 µM"},
      {"compound": "Cc1ccc2nc(/C(C#N)=C/c3cn[nH]c3-c3ccc(F)cc3)[nH]c2c1", "Potency": "inconclusive [cytotoxic, single point]"},
      {"compound": "O=C(CN1CCN(c2ncccn2)CC1)N(Cc1ccccc1)c1ccc(F)cc1", "Potency": "inconclusive [cytotoxic, single point]"},
      {"compound": "CCc1ccc(CN2CCN(C(=O)c3cccc(OC)c3OC)CC2)cc1", "Potency": "active: 14.1 µM"},
      {"compound": "CC1(C)c2ssc(=S)c2-c2ccccc2N1C(=O)CSC1=NCCS1", "Potency": "inactive"},
      {"compound": "CC(C)c1cc(C(=O)N/N=C/C(Br)=C/c2ccccc2)n[nH]1", "Potency": "inconclusive [cytotoxic, partial curve, poor fit]"},
      {"compound": "Cc1nc2c(OCc3ccc(F)c(F)c3)cccn2c1N(C)C(=O)CCC1CCCC1", "Potency": "active: 18.4 µM"},
      {"compound": "O=C(Nc1c(Cl)cccc1Cl)c1ccc(-c2ccccc2)cc1", "activity, negative = toxicity": "inconclusive: -32.7% [cytotoxic]"},
      {"compound": "CSc1ccccc1C(=O)C1CCCN(C(=O)c2ccc(N3CCOCC3)cc2)C1", "note": "(centres undefined)", "Potency": "inactive"},
      {"compound": "O=[N+]([O-])c1ccccc1/C=N/Nc1nccnc1Cl", "Potency": "inconclusive [cytotoxic, single point]"},
      {"compound": "COc1cc(/C=N/NC(=O)c2cccc(NC(=O)c3ccccc3)c2)ccc1O", "Potency": "inactive"},
      {"compound": "O=C(c1ccc(N2CCN(C(=O)c3ccccc3Br)CC2)cc1)c1cccc(F)c1", "Potency": "inconclusive [cytotoxic, partial curve]"},
      {"compound": "N=c1n(Cc2ccc(Cl)cc2)c2ccccc2n1CC(O)COc1ccccc1", "note": "(centres undefined)", "Potency": "active: 14.6 µM"},
      {"compound": "Cc1cc(NC(=O)c2cccc(S(=O)(=O)N3c4ccccc4CC3C)c2)no1", "note": "(centres undefined)", "Potency": "inconclusive [cytotoxic, single point]"},
      {"compound": "CCn1c(C(=O)NCCCN2CCc3ccccc3C2)cc2sccc21", "Potency": "inconclusive [cytotoxic, partial curve]"},
      {"compound": "O=C(c1ccc2c(c1)OCO2)C1CCCN(Cc2cccc(C(F)(F)F)c2)C1", "note": "(centres undefined)", "Potency": "inactive"},
      {"compound": "O=C(Nc1cccc(-c2csc(Nc3ccc(Cl)cc3)n2)c1)c1ccccc1", "Potency": "inconclusive [cytotoxic, single point]"},
      {"compound": "CCOC(=O)C1CCCN(CC(=O)Nc2c(C(=O)OC)[nH]c3ccc(Br)cc23)C1", "note": "(centres undefined)", "Potency": "inconclusive [cytotoxic, single point]"},
      {"compound": "O=C(NC1CCCCC1)N1CCN(c2nc(-c3ccccc3)cs2)CC1", "Potency": "inconclusive [cytotoxic, single point]"},
      {"compound": "COc1ccc(/C=N/NC(N)=S)cc1OC(=O)c1cccc2ccccc12", "Potency": "inconclusive [cytotoxic, single point]"},
      {"compound": "COc1cc2cc(C(=O)NCCc3c[nH]c4ccccc34)c(N)nc2cc1OC", "Potency": "inconclusive [cytotoxic, partial curve]"}
    ]}
  ]
}
